Some of the results follow. At the low end of the ranking, values are background and their order means little.

This assay has as its target GST-SBP-SLBP (stem-loop binding protein) (UniProt Q14493). The experiment in a line: targeted RNA Bind-n-Seq.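 Also: DESeq read counts versus GST-SBP nonspecific binding control pulldown.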 The conditions noted are these: RBNS binding buffer: 25 mM Tris pH 7.5, 150 mM KCl, 3 mM MgCl2, 0.1% Tween, 0.5 mg/mL BSA, 1 mM DTT; 27 nM protein, 750 pM RNA pool; temperature not stated; high values mean tight binding.
Consider “GGUCACGUCUCAAUCAACUCUAUUCCAGGAGUUUCCUCCUGUAUUCUCAACAGCUCGCAGUCAAG”, for which the binding signal (log2 fold change) was -0.0423. Next, “GGUCACGUCUCAAUCAACUCAAUCUCAGGAGUUUGCUCCUGUAUACUCAACAGCUCGCAGUCAAG”: 0.0522; “GGUCACGUCUCAAUCAACUCAUUCGAGGGGGGGAAAACCCCUUUGCCCUCAUCAUCAACAGCUCGCAGUCAAG”: 0.363; “GGUCACGUCUCAAUCAACUCUAUUCCCAGGGAAAGCCCUGGCUAACUCAACAGCUCGCAGUCAAG”: -0.13. Next, “GGUCACGUCUCAAUCAACUCCCAAGAGGGGGGGAAAACCCCUUUACCCUCAUCAUCAACAGCUCGCAGUCAAG”: 0.074.

For “GGUCACGUCUCAAUCAACUCCUAAGAGGGGGGGAAAACCCCUUUACCCUCACCUUCAACAGCUCGCAGUCAAG”, the binding signal (log2 fold change) was 0.166. For the sequence “GGUCACGUCUCAAUCAACUCACAAGAGGGGGGGAAAACCCCUUUGCCCUCAUUCUCAACAGCUCGCAGUCAAG”, the binding signal (log2 fold change) was -0.344. Regarding “GGUCACGUCUCAAUCAACUCAUCUUCCAGGGAAAACCCUGGCGUUUUCAACAGCUCGCAGUCAAG”, the binding signal (log2 fold change) is 0.146.

Turning to “GGUCACGUCUCAAUCAACUCAUCGUCAGGAGUUUGCUCCUGCAUUUUCAACAGCUCGCAGUCAAG”, the binding signal (log2 fold change) was -0.0606. The value for “GGUCACGUCUCAAUCAACUCAGUCUCCAGGGAAAGCCCUGGUUUUUUCAACAGCUCGCAGUCAAG” was -0.0798; that for “GGUCACGUCUCAAUCAACUCAUCUCCAGGAGUUUACUCCUGCAUAUUCAACAGCUCGCAGUCAAG” was 0.229. The value for “GGUCACGUCUCAAUCAACUCUAUAGAGGGGGGGAAAACCCCUUUACCCUCACAUUCAACAGCUCGCAGUCAAG” was -0.213; that for “GGUCACGUCUCAAUCAACUCAAUUUCAGGAGUUUGCUCCUGUAUAUUCAACAGCUCGCAGUCAAG” was -0.0421. Next, “GGUCACGUCUCAAUCAACUCUUCUUCCAGGGAAAUCCCUGGUAAAUUCAACAGCUCGCAGUCAAG”: -0.242; “GGUCACGUCUCAAUCAACUCAUGUCCAGGAGUUUUCUCCUGCUUUCUCAACAGCUCGCAGUCAAG”: -0.123; “GGUCACGUCUCAAUCAACUCUCAAGAGGGGGGGAAAACCCCUUUACCCUCCGUAUCAACAGCUCGCAGUCAAG”: -0.216. With “GGUCACGUCUCAAUCAACUCUUCUCCAGGAGUUUACUCCUGUUUUCUCAACAGCUCGCAGUCAAG”, the binding signal (log2 fold change) was -0.142. The value for “GGUCACGUCUCAAUCAACUCCUACGAGGGGGGGAAAACCCCUUUACCCUCAAAAUCAACAGCUCGCAGUCAAG” was -0.15; that for “GGUCACGUCUCAAUCAACUCCUAAGAGGGGGGGAAAACCCCUUUGCCCUCAUCUUCAACAGCUCGCAGUCAAG” was -0.166. Turning to “GGUCACGUCUCAAUCAACUCUAAAGAGGGGGGGAAAACCCCUUUACCCUCGUACUCAACAGCUCGCAGUCAAG”, the binding signal (log2 fold change) was found to be 0.194. Next, “GGUCACGUCUCAAUCAACUCAAUCUCCAGGGAAAACCCUGGUUUACUCAACAGCUCGCAGUCAAG”: -0.0691; “GGUCACGUCUCAAUCAACUCAUCCCCAGGAGUUUUCUCCUGCAUUCUCAACAGCUCGCAGUCAAG”: 0.11. Next, “GGUCACGUCUCAAUCAACUCUUUUCCAGGAGUUUUCUCCUGCAUACUCAACAGCUCGCAGUCAAG”: -0.00321; “GGUCACGUCUCAAUCAACUCCUAUGAGGGGGGGAAAACCCCUUUACCCUCCAAUUCAACAGCUCGCAGUCAAG”: -0.335. The value for “GGUCACGUCUCAAUCAACUCUUAAGAGGGGGGGAAAACCCCUUUACCCUCAAUGUCAACAGCUCGCAGUCAAG” was -0.0691. In the case of “GGUCACGUCUCAAUCAACUCAUUCCCAGGAGUUUACUCCUGCUUAUUCAACAGCUCGCAGUCAAG”, the binding signal (log2 fold change) was -0.123. Next, “GGUCACGUCUCAAUCAACUCCCACGAGGGGGGGAAAACCCCUUUACCCUCAAACUCAACAGCUCGCAGUCAAG”: -0.2; “GGUCACGUCUCAAUCAACUCAACUUCCAGGGAAACCCCUGGUUAACUCAACAGCUCGCAGUCAAG”: 0.279; “GGUCACGUCUCAAUCAACUCAUCUUCCAGGGAAAGCCCUGGUUUUCUCAACAGCUCGCAGUCAAG”: -0.0852. The value for “GGUCACGUCUCAAUCAACUCAUCUCCCAGGGAAACCCCUGGCAUAUUCAACAGCUCGCAGUCAAG” was -0.07; that for “GGUCACGUCUCAAUCAACUCUUCUUCCAGGGAAAGCCCUGGCAUUUUCAACAGCUCGCAGUCAAG” was -0.0671; that for “GGUCACGUCUCAAUCAACUCUUCCUCAGGAGUUUACUCCUGCUAUCUCAACAGCUCGCAGUCAAG” was 0.105. The value for “GGUCACGUCUCAAUCAACUCUACUCCCAGGGAAAGCCCUGGUAUACUCAACAGCUCGCAGUCAAG” was 0.176; that for “GGUCACGUCUCAAUCAACUCAUCUUCCAGGGAAACCCCUGGCAUUCUCAACAGCUCGCAGUCAAG” was -0.344. Take “GGUCACGUCUCAAUCAACUCACUAGAGGGGGGGAAAACCCCUUUACCCUCAAAAUCAACAGCUCGCAGUCAAG”: the binding signal (log2 fold change) came to 0.183. The value for “GGUCACGUCUCAAUCAACUCUACUCCAGGAGUUUUCUCCUGCAAACUCAACAGCUCGCAGUCAAG” was 0.0589; that for “GGUCACGUCUCAAUCAACUCCCUAGAGGGGGGGAAAACCCCUUUGCCCUCCAAAUCAACAGCUCGCAGUCAAG” was -0.315.

(Values after article PMC5892938.)
